Measured values: ChEMBL document CHEMBL1201862, “PubChem BioAssay data set” (2004)
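Five compound concentrations were applied to cells in 96-well plates for 48 hours; endpoints were derived by simple linear interpolation of the resulting dose-response curve. GI50 is the concentration that inhibits growth by half.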 Activity calls are given as the source filed them. Cut-off read from the data, not from the text of the source: active = GI50 up to about 1.1 µM and inactive = higher.

tested on: NCI-H322M; experiment: NCI-60 cell line screen, 48 h

Q: Which GI50 does the source give for `CC(C)(C)OC(=O)N(CCCCN(CCCNC(=O)C(F)(F)F)C(=O)OC(C)(C)C)CCCNC(=O)C(F)(F)F` here?
A: The GI50 was inactive: > 100 µM.

Q: Which GI50 does the source give for `CC(=O)Nc1ccc(-c2nc3ccccc3s2)cc1C` here?
A: The GI50 was inactive: 58.7 µM.

Q: With `Cc1cc(Cl)nc2ccc(Cc3ccc4nc(Cl)cc(C)c4c3)cc12` as the compound, how does the GI50 read?
A: Its GI50 is inactive: 46.2 µM.

Q: With `CC(C)c1cc(C(F)(F)F)nc(NNc2nc(C(C)C)cc(C(F)(F)F)n2)n1` as the compound, how does the GI50 read?
A: Its GI50 is inactive: 38 µM.

Q: How did the GI50 turn out when `CN(C)CC/C=C1\c2ccccc2Sc2ccc(Cl)cc21` was run?
A: The GI50 was inactive: 11.6 µM.

Q: `O=C(CCCCCNC(=O)c1ccc(Cl)cc1)NO` was tested. Which GI50 did it give?
A: Its GI50 is inactive: 5.47 µM.

Q: For `COc1ccc(C2=NN(C(=N)S)C(c3ccccc3)C2)cc1` (stereo not drawn), which GI50 is on record?
A: The GI50 was inactive: 69.8 µM.

Q: Which GI50 does the source give for `CCc1cccc(C(C)C)c1NC(=O)C(=O)C(C(=O)C(=O)OC)c1nc2ccccc2nc1O` (stereo not drawn) here?
A: Its GI50 is inactive: > 100 µM.

Q: With `CN(C(=O)C12C3C4C1C1C4(C(=O)C45C6C7C4C4C5C6C74C)C3C12C)C(C)(C)C` (stereo not drawn) as the compound, how does the GI50 read?
A: The GI50 was inactive: > 100 µM.

Q: With `CCOC(=O)C1(Cc2ccc3c(c2)CCC3)Cc2cc3c(cc2C1=O)CCC3` (stereo not drawn) as the compound, how does the GI50 read?
A: The GI50 was inactive: > 100 µM.

Q: How did the GI50 turn out when `O=P1(c2ccccc2)C(c2ccccc2)CCC1c1ccccc1` (stereo not drawn) was run?
A: Its GI50 is inactive: 76 µM.

Q: How did the GI50 turn out when `O=C(OCc1ccccc1C1CSCSC1)c1cc(C(=O)OCc2ccccc2C2CSCSC2)c(C(=O)OCc2ccccc2C2CSCSC2)cc1C(=O)OCc1ccccc1C1CSCSC1` was run?
A: Its GI50 is inactive: > 100 µM.

Q: How did the GI50 turn out when `CC1CC[C@@]2(OC1)OC1C[C@H]3[C@@H]4CC=C5C[C@@H](OC6OC(CO)C(OC7OC(CO)C(O)C(O)C7O)C(O)C6OC6OC(C)C(O)C(O)C6O)CC[C@]5(C)[C@H]4CC[C@]3(C)C1[C@@H]2C` (stereo partly drawn) was run?
A: The GI50 was active: 0.867 µM.

Q: Which GI50 does the source give for `CNS(=O)(=O)NNS(=O)(=O)c1ccccc1` here?
A: Its GI50 is inactive: > 100 µM.

Q: With `CC(C)C(Br)CCC1=CCC(Br)(Br)C1` (stereo not drawn) as the compound, how does the GI50 read?
A: Its GI50 is inactive: 16.8 µM.

Q: Which GI50 does the source give for `CNC(=O)CN(CC(N)=O)C(N)=O` here?
A: The GI50 was inactive: > 100 µM.

Q: `O=C(N/N=C/c1ccc(O)cc1)NNCCO` was tested. Which GI50 did it give?
A: The GI50 was inactive: > 100 µM.

Q: With `O=C(/N=N/C(=O)OCc1ccccc1)OCc1ccccc1` as the compound, how does the GI50 read?
A: Its GI50 is inactive: > 100 µM.

Q: `O=CC1=C(C(=O)OC(c2ccccc2)c2ccccc2)N2C(=O)[C@@H](NC(=O)Cc3cccs3)[C@H]2SC1` was tested. Which GI50 did it give?
A: The GI50 was inactive: > 100 µM.

Q: With `O=C1CC(c2ccc(O)cc2)C2(O1)C(=O)OC(C(O)CO)C2O` (stereo not drawn) as the compound, how does the GI50 read?
A: Its GI50 is inactive: > 100 µM.

Q: Which GI50 does the source give for `Cn1cnc([N+](=O)[O-])c1Sc1nccn1-c1cccc2ccccc12` here?
A: The GI50 was inactive: 25.4 µM.

Q: `O=Cc1[nH]c(=O)[nH]c(=O)c1CCl` was tested. Which GI50 did it give?
A: The GI50 was inactive: > 100 µM.

Q: Which GI50 does the source give for `CN(C)CCCn1c(Cn2nc3ccccc3n2)nc2cc(C(F)(F)F)ccc21` here?
A: The GI50 was inactive: 29.4 µM.

Q: `CCCC(=O)c1ccc(=O)n(C)c1` was tested. Which GI50 did it give?
A: The GI50 was inactive: > 100 µM.

Q: `O=C(NC(Cc1ccc(I)cc1)C(=O)O)c1ccc(Cl)cc1` (stereo not drawn) was tested. Which GI50 did it give?
A: Its GI50 is inactive: > 100 µM.

Q: With `C/C(=N\Nc1nc2ccccc2s1)c1ccc2ccccc2n1` as the compound, how does the GI50 read?
A: The GI50 was inactive: > 100 µM.

Q: How did the GI50 turn out when `O=C(Cc1nc2sc3c(c2c(=O)[nH]1)CCCC3)Nc1ccccc1` was run?
A: The GI50 was inactive: > 100 µM.

Q: With `CCc1cn(C2CC(CO)C(CO)S2)c(=O)[nH]c1=O` (stereo not drawn) as the compound, how does the GI50 read?
A: Its GI50 is inactive: > 100 µM.

Q: With `COc1ccc(CC2NCCc3cc(OC)c(OC)cc32)cc1Br` (stereo not drawn) as the compound, how does the GI50 read?
A: Its GI50 is inactive: 49.5 µM.

Q: For `NC(=O)c1sc2nc3ccccc3n2c1N`, which GI50 is on record?
A: Its GI50 is inactive: 82.8 µM.

Q: For `CCN1c2ccccc2C(C(SC)S(=O)(=O)c2ccc(C)cc2)c2c1[nH]c(=O)n(C)c2=O` (stereo not drawn), which GI50 is on record?
A: The GI50 was inactive: > 100 µM.

Q: `C=C1CCC(OC(C)=O)C2(C)C(OC(C)=O)CC3OC3(C)C2C(OC(C)=O)C2C(C)C(=O)OC2C1Cl` (stereo not drawn) was tested. Which GI50 did it give?
A: The GI50 was inactive: > 100 µM.

Q: For `CC1=CP(=O)(OC(C)C)C=C(C)C1=C(Cl)Cl` (stereo not drawn), which GI50 is on record?
A: Its GI50 is inactive: > 100 µM.

Q: Which GI50 does the source give for `COc1cccc2c1C(=O)c1c(O)c3c(c(O)c1C2=O)C[C@@](O)(C(=O)CO)C[C@@H]3OC1CC(N2CCOCC2)C(O)C(C)O1` (stereo partly drawn) here?
A: The GI50 was active: 0.00348 µM.

Q: Which GI50 does the source give for `O=c1oc2ccc(Cl)cc2cc1C1=CSC2=NCCN12` here?
A: The GI50 was inactive: 21.7 µM.

Q: How did the GI50 turn out when `Cc1cn2c(/C=C3/C(=O)Nc4ccccc43)c(C)nc2s1` was run?
A: Its GI50 is inactive: 4.86 µM.

Q: With `OCC(O)C(O)C(O)C(O)c1nc2cc(Cl)ccc2[nH]1` (stereo not drawn) as the compound, how does the GI50 read?
A: Its GI50 is inactive: > 100 µM.

Q: With `Cc1ccc(S(=O)(=O)N/N=C2\CCC3(O)CC2(C)CCC2C3CC2(C)C)cc1` (stereo not drawn) as the compound, how does the GI50 read?
A: The GI50 was inactive: 70.6 µM.

Q: With `CC(=O)Nc1cccc(N2C(=O)/C(=C\c3cccc(Oc4ccccc4)c3)S(=O)(=O)C2c2ccccc2)c1` (stereo not drawn) as the compound, how does the GI50 read?
A: The GI50 was inactive: > 100 µM.

Q: Which GI50 does the source give for `C=CC(C)(C)c1cc([C@@H]2COc3cc(O)ccc3C2=O)c(O)c(O)c1OC` here?
A: Its GI50 is inactive: 32.8 µM.

Q: For `O=C1Nc2cc([N+](=O)[O-])ccc2C(=O)N2CCC[C@@H]12`, which GI50 is on record?
A: The GI50 was inactive: > 100 µM.

Q: Which GI50 does the source give for `Cc1cn(CCC(N)C(=O)O)c(=O)[nH]c1=O` (stereo not drawn) here?
A: The GI50 was inactive: > 100 µM.

Q: With `O=C(/N=S(/NC(=O)c1ccccc1)C(Cl)(Cl)Cl)c1ccccc1` (stereo not drawn) as the compound, how does the GI50 read?
A: The GI50 was inactive: 44.4 µM.

Q: How did the GI50 turn out when `CCOC(=O)Nn1cnnc1Cc1ccccc1` was run?
A: Its GI50 is inactive: > 100 µM.

Q: For `CC/C(Cl)=N\OC(=O)Nc1ccc(F)cc1F`, which GI50 is on record?
A: Its GI50 is inactive: 18.2 µM.

Q: `CN1C(=O)C(C)(C)NS1(=O)=O` was tested. Which GI50 did it give?
A: Its GI50 is inactive: > 100 µM.

Q: For `CCOC(=O)c1cc(-c2ccc(OC)c(OC)c2)c[nH]1`, which GI50 is on record?
A: Its GI50 is inactive: > 10 µM.

Q: How did the GI50 turn out when `COc1cccc(C2=NC(C(C)C)CO2)c1` (stereo not drawn) was run?
A: Its GI50 is inactive: > 100 µM.

Q: `Nc1ncc(CN2CCCC2)c(-c2ccccc2O)n1` was tested. Which GI50 did it give?
A: Its GI50 is inactive: > 750 µM.

Q: For `N#CC1(C#N)C(c2ccccc2)C=CC12OCCCO2` (stereo not drawn), which GI50 is on record?
A: The GI50 was inactive: 48 µM.

Q: With `CC1=NN(C(=O)Cc2ccccc2)C(=O)/C1=C/c1c(O)ccc2ccccc12` as the compound, how does the GI50 read?
A: Its GI50 is inactive: > 100 µM.

Q: For `CSc1ncc2c(C#N)c3n(C)c4ccccc4n3c(=O)c2n1`, which GI50 is on record?
A: The GI50 was inactive: > 100 µM.

Q: Which GI50 does the source give for `COC1=C2CC(C)CC(OC)C(OC(=O)CCCN)C(C)/C=C(\C)C(OC(N)=O)C(OC)/C=C\C=C(/C)C(=O)NC(=CC1=O)C2=O` (stereo not drawn) here?
A: Its GI50 is inactive: 22.5 µM.

Q: How did the GI50 turn out when `Cc1ccc2nc(NC(=O)C(=O)C(C#N)c3ccc(Cl)cc3)sc2c1` (stereo not drawn) was run?
A: The GI50 was inactive: > 50 µM.

Q: Which GI50 does the source give for `NCCN1C(=O)C2C3c4ccccc4C(c4ccccc43)C2C1=O` (stereo not drawn) here?
A: Its GI50 is inactive: > 100 µM.

Q: How did the GI50 turn out when `Cc1ccc(/C=N/NS(=O)(=O)c2ccccc2)cc1C` was run?
A: Its GI50 is inactive: > 100 µM.

Q: For `O=[N+]([O-])c1cc2c(cc1O)[nH]c1cccc([N+](=O)[O-])c12`, which GI50 is on record?
A: The GI50 was inactive: > 100 µM.

Q: With `Cc1nnc(N/N=C(/C(=O)C(C#N)c2ccc(Cl)cc2)C(C#N)c2ccc(Cl)cc2)n1N` (stereo not drawn) as the compound, how does the GI50 read?
A: The GI50 was inactive: 16.3 µM.

Q: For `COc1cccc2c1C(=O)c1c(O)c3c(c(O)c1C2=O)C[C@@](O)(C(=O)CO)C[C@@H]3OC1CC(N)C(OC)C(C)O1` (stereo partly drawn), which GI50 is on record?
A: Its GI50 is active: 0.362 µM.

Q: With `O=S(=O)(O)C(Cc1nc2ccccc2[nH]1)S(=O)(=O)OCCC1S(=O)(=O)OCCOS1(=O)=O` (stereo not drawn) as the compound, how does the GI50 read?
A: Its GI50 is inactive: > 100 µM.

Q: For `C/C(=N\Nc1nc2ccccc2o1)c1cccc[n+]1[O-]`, which GI50 is on record?
A: The GI50 was inactive: 19.8 µM.

Q: For `CN1CC[C@]2(C)c3cc(O)ccc3CC3CCCC1C32C` (stereo partly drawn), which GI50 is on record?
A: The GI50 was inactive: > 100 µM.

Q: For `COC(=O)C1CC(OC(C)=O)C=C2C(=O)CCC21` (stereo not drawn), which GI50 is on record?
A: Its GI50 is inactive: 30.3 µM.

Q: How did the GI50 turn out when `CS(=O)(=O)Oc1cccc(/C=N/N=C(\N)NO)c1` was run?
A: Its GI50 is inactive: 22.3 µM.

Q: Which GI50 does the source give for `O=C1/C(=C/c2ccc([N+](=O)[O-])cc2)CCCc2ccccc21` here?
A: The GI50 was inactive: > 100 µM.

Q: For `CC(C)=CCCc1c(C)ccc2c1C(=O)C(=O)C(C(C)C)=C2`, which GI50 is on record?
A: Its GI50 is inactive: > 22 µM.

Q: `Cc1cc(S(=O)(=O)Nc2nc(N)n[nH]2)c(S)cc1Cl` was tested. Which GI50 did it give?
A: The GI50 was inactive: > 10 µM.

Q: `CC(C)Cc1cc2c(cc1O)CCC1C2CC[C@@]2(C)C1CC[C@@H]2O` (stereo partly drawn) was tested. Which GI50 did it give?
A: Its GI50 is inactive: 12.3 µM.
